Measurements as given in PubChem BioAssay AID1345083 (National Center for Advancing Translational Sciences (NCATS), 2018).
Several values for one entry are separate records, joined by “and”; a condition that tells them apart may be missing. Identical values can stand only once. Screen size: about 94,000 compounds; about 6,200 (6.6%) were called active. This list was built around the results that the source calls inconclusive (neither active nor inactive); the mix of calls is not that of the screen. Calls follow the shape of the dose curve; as a rule, active = well fitted inhibition curve with a large enough effect; inconclusive = small, poorly fitted or top-dose-only effect; inactive = flat fitted curve, though single readings scatter. A potency beside an inconclusive call is a rough fit, not a confirmed value.

Experiment: Cytotoxic Profiling in HEK 293 Cell Line of Diverse Libraries Using Quantitative High-Throughput Screening; also: nearly all actives have a fitted effect of over 60% in size
Settings: HEK 293 viability, ATP luminescence (CellTiter-Glo), 48-72 h; activity change, negative = cytotoxicity: at 115 µM (top of the series) unless noted; series mostly up to 115 µM
Method in brief: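 HEK 293 cells at 250 cells/well were exposed to compounds by pintool transfer for 48 or 72 hr at 37 degree Celsius, 5% CO2. Viability was read as ATP-coupled luminescence with CellTiter-Glo after 10 min at room temperature.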
% is scaled to controls: 0 for no effect and ±100 for the full control effect; potency is read from the fitted curve at half-maximal effect; tags tell the direction and shape of the fitted curve.

SMILES | Potency | outcome | activity change, negative = cytotoxicity
O=C(NCc1cccs1)c1nc(-c2ccc(F)cc2)c2ccccn12 | inconclusive: 50.1 µM [inhibitor, partial curve, poor fit] | – | –
COc1cc(F)ccc1-c1cc(C(=O)NCc2cccnc2)c2c(c1)N(C)CCO2 | inconclusive: 89.1 µM [inhibitor, partial curve, poor fit] | – | –
O=C(Nc1ccc(Cl)cc1Cl)N1CCc2[nH]c3ccc(F)cc3c2C1 | inconclusive: 79.4 µM [inhibitor, partial curve, poor fit] | – | –
COc1ccc(-c2ccccc2C(=O)N2CCC(NC(=O)Cc3ccc(F)cc3)CC2)nn1 | – | inactive | –
COc1cccc(C(=O)NC2CCCN(c3ccc4nnc(-c5ccccc5)n4n3)C2)c1 (centres undefined) | – | inactive | –
O=C(c1cn(-c2ccccc2)nn1)N1CCOC(c2ccc(F)cc2)C1 (centres undefined) | inconclusive: 79.4 µM [inhibitor, partial curve, poor fit] | – | –
CN(C)Cc1ccc(-c2cc3c(ccn3Cc3ccncc3)c(N3CCOCC3)n2)cc1 | active: 100 µM | – | –
COc1cccc(Cl)c1-c1nccc2c(=O)cc(N(C)C)oc12 | inconclusive: 126 µM [inhibitor, single point] | – | –
COc1ccc(OC2CCN(C(C)=O)CC2)c(C(=O)NC(C)Cc2cccs2)c1 (centres undefined) | – | – | inactive: -16.9%
O=C(c1ccccc1)N1CCn2c(nn(-c3ccc([N+](=O)[O-])cc3)c2=O)C1 | – | – | inactive: -7.24%
O=C(c1ccccc1)N1Cc2ccccc2CC2(CCCN2CC2CCNC2)C1 (centres undefined) | active: 79.4 µM | – | –
COC[C@@H]1CN(C(=O)c2ccccc2OC)C[C@H]1c1ccncc1 | – | – | inactive: 4.64%
N#Cc1cccc(CN2CCCC(c3nc4ccc(F)cc4c(=O)[nH]3)C2)c1 (centres undefined) | inconclusive: 50.1 µM [inhibitor, partial curve, poor fit] and active: 44.7 µM | – | –
CCOC(=O)[C@@H]1CN(C(=O)OCC(C)(C)C)[C@H]2c3ccccc3O[C@@H]12 | inconclusive: 89.1 µM [inhibitor, partial curve, poor fit] | – | –
CN(C(=O)c1ccc(Cl)nc1)C1CCc2ccccc21 (centres undefined) | inconclusive: 112 µM [inhibitor, partial curve, poor fit] | – | –
CNC(=O)c1cc(C)nc2onc(C3CCN(C(C)=O)C3)c12 (centres undefined) | – | inactive [at 172 µM] | –
Cn1c([C@H]2CCN(C3CCOCC3)C2)nc2ccccc21 | – | – | inactive: -12.7% [at 230 µM]
Cn1ncc2c(C(=O)NCc3ccccc3Cl)cc(-c3ccc(F)cc3)nc21 | inconclusive: 50.1 µM [inhibitor, partial curve, poor fit] | – | –
CN1C(=O)C(c2ccccc2)CC12CCN(CCC(=O)O)CC2 (centres undefined) | – | – | inactive: 3.9%
